Source: the supplement of paper PMC10369915
The list shows a part of the results. Cut-off read from the data, not from the text of the source: active = 3.2 or more and inactive = the rest. Most of these values are background signal.

Key:
Test in all cases: enrichment score (SH2-bound / input frequency) (ratio); bacterial display of known human phosphotyrosine sites (pTyr-Var adds point mutants) read by sequencing; higher = stronger binding; tyrosines were phosphorylated by kinases first
Conditions in all cases: peptide library: Human pTyr
[1] = target: SHP2 C-SH2 domain E139D
[2] = target: SHP2 C-SH2 domain wild-type
[3] = target: SHP2 N-SH2 domain L43F
[4] = target: SHP2 N-SH2 domain T42A
[5] = target: SHP2 N-SH2 domain T52S
[6] = target: SHP2 N-SH2 domain wild-type
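Note: displayed peptides selected on beads carrying the immobilized SH2 domain, with library peptides lacking any tyrosine serving as negative controls.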

With ASGCRVLYDACPKSL [CELR3_HUMAN_2126] the enrichment score [1] was inactive: 0.799, the enrichment score [2] was inactive: 0.966 and the enrichment score [3] was inactive: 0.785. The enrichment score [4] was inactive: 1.03, the enrichment score [5] was inactive: 0.82 and the enrichment score [6] was inactive: 0.784.

AASYGRIYAGGGTGS [CELR3_HUMAN_3051] was tested, and the enrichment score [1] was inactive: 0.593, the enrichment score [2] was inactive: 0.305 and the enrichment score [3] was inactive: 0.381. For the same binder, the enrichment score [4] was inactive: 0.337, the enrichment score [5] was inactive: 0.4 and the enrichment score [6] was inactive: 0.365.

In the case of VSSDAEEYQPPIWKS [CHN2_HUMAN_21], the enrichment score [1] is reported as inactive: 0.9, the enrichment score [2] is reported as inactive: 0.682 and the enrichment score [3] is reported as inactive: 0.81. For the same binder, the enrichment score [4] was inactive: 0.682, the enrichment score [5] was inactive: 0.848 and the enrichment score [6] was inactive: 0.718.

ASNGNLLYIGFRGLD [CHRNA7_HUMAN_386] was tested, and the enrichment score [1] was inactive: 1.56, the enrichment score [2] was inactive: 1.14 and the enrichment score [3] was inactive: 1.22. The enrichment score [4] was inactive: 1.31, the enrichment score [5] was inactive: 1.39 and the enrichment score [6] was inactive: 1.45.

For KILEEVRYIANRFRC [CHRNA7_HUMAN_442], the enrichment score [1] was inactive: 2.06, the enrichment score [2] was inactive: 2.34 and the enrichment score [3] was inactive: 2.08. The enrichment score [4] was inactive: 1.96, the enrichment score [5] was inactive: 2.03 and the enrichment score [6] was inactive: 2.64.

In the case of GMSEEVTYATLTFQD [CL12B_HUMAN_7], the enrichment score [1] is reported as active: 6.61, the enrichment score [2] is reported as active: 9.7 and the enrichment score [3] is reported as active: 11.1. For the same binder, the enrichment score [4] was active: 8.76, the enrichment score [5] was active: 7.49 and the enrichment score [6] was active: 4.63.

For GMQDEDGYITLNIKT [CLC1B_HUMAN_7], the enrichment score [1] was inactive: 1.87, the enrichment score [2] was inactive: 1.55 and the enrichment score [3] was inactive: 1.23. The enrichment score [4] was inactive: 1.54, the enrichment score [5] was inactive: 1.64 and the enrichment score [6] was inactive: 1.77.

In the case of YTATKVVYSAPRSTG [CLD3_HUMAN_198], the enrichment score [1] is reported as inactive: 2.63, the enrichment score [2] is reported as active: 6.17 and the enrichment score [3] is reported as inactive: 0.696. The enrichment score [4] was inactive: 0.741, the enrichment score [5] was inactive: 0.618 and the enrichment score [6] was inactive: 0.716.

In the case of CFLRENAYADSSVVG [CLH2_HUMAN_899_YA], the enrichment score [1] is reported as inactive: 1.91, the enrichment score [2] is reported as inactive: 1.05 and the enrichment score [3] is reported as inactive: 1.01. The enrichment score [4] was inactive: 1.15, the enrichment score [5] was inactive: 1.28 and the enrichment score [6] was inactive: 1.8.

In the case of DEEIELAYEQVAKAL [CLIC1_HUMAN_233], the enrichment score [1] is reported as inactive: 0.91, the enrichment score [2] is reported as inactive: 0.781 and the enrichment score [3] is reported as inactive: 0.805. For the same binder, the enrichment score [4] was inactive: 0.804, the enrichment score [5] was inactive: 0.816 and the enrichment score [6] was inactive: 1.19.

In the case of DTDARHSYEAQRENS [CLK2_HUMAN_99_YA], the enrichment score [1] is reported as inactive: 0.867, the enrichment score [2] is reported as inactive: 0.711 and the enrichment score [3] is reported as inactive: 0.738. The enrichment score [4] was inactive: 0.727, the enrichment score [5] was inactive: 0.665 and the enrichment score [6] was inactive: 0.827.

TMHHCKRYRSPEPDP [CLK3_HUMAN_155] was tested, and the enrichment score [1] was inactive: 1.09, the enrichment score [2] was inactive: 0.818 and the enrichment score [3] was inactive: 1.08. For the same binder, the enrichment score [4] was inactive: 1.09, the enrichment score [5] was inactive: 0.98 and the enrichment score [6] was inactive: 0.983.

For EEEPDSDYSVIRKTG [CLM8_HUMAN_293], the enrichment score [1] was inactive: 1.05, the enrichment score [2] was inactive: 1 and the enrichment score [3] was inactive: 0.811. For the same binder, the enrichment score [4] was inactive: 0.867, the enrichment score [5] was inactive: 0.892 and the enrichment score [6] was inactive: 0.976.

With GGQAGEVYVGVWKKA [ABL2_HUMAN_303_YA] the enrichment score [1] was inactive: 0.936, the enrichment score [2] was inactive: 0.573 and the enrichment score [3] was inactive: 0.766. For the same binder, the enrichment score [4] was inactive: 0.665, the enrichment score [5] was inactive: 0.982 and the enrichment score [6] was inactive: 0.64.

ASLPSQKYPGPQAEG [CMGA_HUMAN_194] was tested, and the enrichment score [1] was inactive: 0.722, the enrichment score [2] was inactive: 0.687 and the enrichment score [3] was inactive: 0.561. The enrichment score [4] was inactive: 0.653, the enrichment score [5] was inactive: 0.729 and the enrichment score [6] was inactive: 0.793.

With KEQNRELYSEGLGAW [CNKSR1_HUMAN_665] the enrichment score [1] was inactive: 0.888, the enrichment score [2] was inactive: 0.756 and the enrichment score [3] was inactive: 0.805. For the same binder, the enrichment score [4] was inactive: 0.626, the enrichment score [5] was inactive: 0.859 and the enrichment score [6] was inactive: 0.666.

GGPEPGPYAQPSVNT [CRK_HUMAN_221] was tested, and the enrichment score [1] was inactive: 0.469, the enrichment score [2] was inactive: 0.42 and the enrichment score [3] was inactive: 0.566. The enrichment score [4] was inactive: 0.543, the enrichment score [5] was inactive: 0.484 and the enrichment score [6] was inactive: 0.659.

In the case of TAPESLAYNTFSIKS [ABL2_HUMAN_459], the enrichment score [1] is reported as inactive: 0.683, the enrichment score [2] is reported as inactive: 0.689 and the enrichment score [3] is reported as inactive: 0.698. For the same binder, the enrichment score [4] was inactive: 0.578, the enrichment score [5] was inactive: 0.637 and the enrichment score [6] was inactive: 0.769.
